Source: PubChem BioAssay (NCI)
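Growth conditions: 96-well plates. Treatment: test compound, 48 hours, 5 concentrations. Analysis: linear interpolation between bracketing concentrations; unreached endpoints set to highest concentration. GI50 marks 50% less growth. TGI marks complete inhibition of growth.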

System: NCI-H322M lung
Test: NCI tumour cell line growth inhibition, 48 h

SMILES: CCNC(=O)Oc1ccc(/C(=C(/C)c2ccc(Cl)cc2)c2ccc(OCCN3CCCCCC3)cc2)cc1
- GI50: 2.28 µM
- TGI: 5.75 µM
